SMILES strings stand for the structures. This is one part of the list. Single values are uncertain, as repeats are few or missing.
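Further: cells treated in 1,536-well plates, then fixed and DAPI-stained, with nuclei counted from automated high-throughput microscope images.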

The first experiment deals with SkMel5. Description: cell count relative to DMSO control; melanoma cells; higher = more viable cells. The conditions noted are these: library dose: standard library concentration; 72 h.
Turning to `N#CC[C@H](C1CCCC1)n1cc(-c2ncnc3[nH]ccc23)cn1` [ruxolitinib] + Cc1ccc(NC(=O)c2cccc(N(C)C)c2)cc1NC(=O)c1ccc(O)cc1 [ZM336372] (first compound 5 µM, partner dose 10 µM), the cell count is 81.8%.

As for `Cc1cc(Nc2cc(N3CCN(C)CC3)nc(Sc3ccc(NC(=O)C4CC4)cc3)n2)n[nH]1` [Tozasertib] + CO[C@@H]1[C@H](N(C)C(=O)c2ccccc2)C[C@H]2O[C@]1(C)n1c3ccccc3c3c4c(c5c6ccccc6n2c5c31)C(=O)NC4 [Midostaurin] (first compound 0.03 µM, partner dose 0.4 µM), the cell count amounted to 59.3%.

As for `N#CC[C@H](C1CCCC1)n1cc(-c2ncnc3[nH]ccc23)cn1` [ruxolitinib] + COc1cc(Nc2ncc(F)c(Nc3ccc4c(n3)NC(=O)C(C)(C)O4)n2)cc(OC)c1OC [Tamatinib] (first compound 5 µM, partner dose 2 µM), the cell count came out at 39.8%.

`Cc1cc(Nc2cc(N3CCN(C)CC3)nc(Sc3ccc(NC(=O)C4CC4)cc3)n2)n[nH]1` [Tozasertib] + O=C(O)c1ccc(-c2c[nH]c3ncc(-c4ccccc4)cc23)cc1C1CCCC1 [GSK650394] (first compound 0.03 µM, partner dose 0.8 µM) gave a cell count of 71.6%.

Take `Cc1cc(Nc2cc(N3CCN(C)CC3)nc(Sc3ccc(NC(=O)C4CC4)cc3)n2)n[nH]1` [Tozasertib] + COc1cc(Nc2ncc(F)c(Nc3ccc4c(n3)NC(=O)C(C)(C)O4)n2)cc(OC)c1OC [Tamatinib] (first compound 0.03 µM, partner dose 2 µM): the cell count turned out to be 53.5%.

Consider `Cc1cc(Nc2cc(N3CCN(C)CC3)nc(Sc3ccc(NC(=O)C4CC4)cc3)n2)n[nH]1` [Tozasertib] + Cn1cncc1[C@@](N)(c1ccc(Cl)cc1)c1ccc2c(c1)c(-c1cccc(Cl)c1)cc(=O)n2C [tipifarnib] (first compound 0.03 µM, partner dose 0.05 µM), for which the cell count worked out at 74.6%.

The compound `CC[C@]1(O)C[C@H]2CN(CCc3c([nH]c4ccccc34)[C@@](C(=O)OC)(c3cc4c(cc3OC)N(C=O)[C@H]3[C@@](O)(C(=O)OC)[C@H](OC(C)=O)[C@]5(CC)C=CCN6CC[C@]43[C@@H]65)C2)C1` [vincristine] + NC(=O)Nc1cc(-c2cccc(F)c2)sc1C(=O)N[C@H]1CCCNC1 [AZD7762] (first compound 0.0005 µM, partner dose 0.1 µM) returned a cell count of 45.6%.

In the case of `Cc1cc(Nc2cc(N3CCN(C)CC3)nc(Sc3ccc(NC(=O)C4CC4)cc3)n2)n[nH]1` [Tozasertib] + CN(C)S(=O)(=O)c1ccc2c(c1)/C(=C/c1cc3c([nH]1)CCCC3)C(=O)N2 [SU6656] (first compound 0.03 µM, partner dose 2 µM), the cell count was found to be 67.4%.

The compound `N#CC[C@H](C1CCCC1)n1cc(-c2ncnc3[nH]ccc23)cn1` [ruxolitinib] + COc1cc2c(Oc3ccc4[nH]c(C)cc4c3F)ncnc2cc1OCCCN1CCCC1 [cediranib] (first compound 5 µM, partner dose 2 µM) came in with a cell count of 78%.

In turn, `CC[C@]1(O)C[C@H]2CN(CCc3c([nH]c4ccccc34)[C@@](C(=O)OC)(c3cc4c(cc3OC)N(C=O)[C@H]3[C@@](O)(C(=O)OC)[C@H](OC(C)=O)[C@]5(CC)C=CCN6CC[C@]43[C@@H]65)C2)C1` [vincristine] + COc1cc2c(Oc3ccc4[nH]c(C)cc4c3F)ncnc2cc1OCCCN1CCCC1 [cediranib] (first compound 0.0005 µM, partner dose 2 µM) had a cell count of 52.9%.

`CC[C@]1(O)C[C@H]2CN(CCc3c([nH]c4ccccc34)[C@@](C(=O)OC)(c3cc4c(cc3OC)N(C=O)[C@H]3[C@@](O)(C(=O)OC)[C@H](OC(C)=O)[C@]5(CC)C=CCN6CC[C@]43[C@@H]65)C2)C1` [vincristine] + O=C(Nc1cccc(Cl)c1)Nc1ncc(CCNc2ncnc3ccsc23)s1 [SNS314] (first compound 0.0005 µM, partner dose 0.004 µM): the cell count turned out to be 32.4%.

The next experiment concerns UACC257. The experiment is described as above. The conditions noted are these: library dose: standard library concentration; 72 h.
Turning to `N#CC[C@H](C1CCCC1)n1cc(-c2ncnc3[nH]ccc23)cn1` [ruxolitinib] + O=C(O)c1ccc(-c2c[nH]c3ncc(-c4ccccc4)cc23)cc1C1CCCC1 [GSK650394] (first compound 5 µM, partner dose 0.8 µM), the cell count was 76.1%.

In turn, `CC[C@]1(O)C[C@H]2CN(CCc3c([nH]c4ccccc34)[C@@](C(=O)OC)(c3cc4c(cc3OC)N(C=O)[C@H]3[C@@](O)(C(=O)OC)[C@H](OC(C)=O)[C@]5(CC)C=CCN6CC[C@]43[C@@H]65)C2)C1` [vincristine] + OCCn1cc(-c2cnc3nnn(Cc4ccc5ncccc5c4)c3n2)cn1 [PF04217903] (first compound 0.0005 µM, partner dose 5 µM) gave a cell count of 106%.

With `Cc1cc(Nc2cc(N3CCN(C)CC3)nc(Sc3ccc(NC(=O)C4CC4)cc3)n2)n[nH]1` [Tozasertib] + CC1(C)NC(=O)N(c2ccc([N+](=O)[O-])c(C(F)(F)F)c2)C1=O [nilutamide] (first compound 0.03 µM, partner dose 5 µM), the cell count amounted to 96.7%.

Compound `Cc1cc(Nc2cc(N3CCN(C)CC3)nc(Sc3ccc(NC(=O)C4CC4)cc3)n2)n[nH]1` [Tozasertib] + NC(=O)Nc1cc(-c2cccc(F)c2)sc1C(=O)N[C@H]1CCCNC1 [AZD7762] (first compound 0.03 µM, partner dose 0.1 µM) returned a cell count of 109%.

For `Cc1cc(Nc2cc(N3CCN(C)CC3)nc(Sc3ccc(NC(=O)C4CC4)cc3)n2)n[nH]1` [Tozasertib] + CN(NC(=O)CC(=O)NN(C)C(=S)c1ccccc1)C(=S)c1ccccc1 [STA4783] (first compound 0.03 µM, partner dose 0.03 µM), the cell count amounted to 84.2%.

Regarding `Cc1cc(Nc2cc(N3CCN(C)CC3)nc(Sc3ccc(NC(=O)C4CC4)cc3)n2)n[nH]1` [Tozasertib] + C=CCn1c(=O)c2cnc(Nc3ccc(N4CCN(C)CC4)cc3)nc2n1-c1cccc(C(C)(C)O)n1 [MK1775] (first compound 0.03 µM, partner dose 0.1 µM), the cell count is 77.7%.

In turn, `Cc1cc(Nc2cc(N3CCN(C)CC3)nc(Sc3ccc(NC(=O)C4CC4)cc3)n2)n[nH]1` [Tozasertib] + Cc1ccc(NC(=O)c2cccc(N(C)C)c2)cc1NC(=O)c1ccc(O)cc1 [ZM336372] (first compound 0.03 µM, partner dose 10 µM) showed a cell count of 74.4%.

For `CC[C@]1(O)C[C@H]2CN(CCc3c([nH]c4ccccc34)[C@@](C(=O)OC)(c3cc4c(cc3OC)N(C=O)[C@H]3[C@@](O)(C(=O)OC)[C@H](OC(C)=O)[C@]5(CC)C=CCN6CC[C@]43[C@@H]65)C2)C1` [vincristine] + C[C@@H]1CCN(C(=O)CC#N)C[C@@H]1N(C)c1ncnc2[nH]ccc12 [CP690550] (first compound 0.0005 µM, partner dose 5 µM), the cell count was found to be 86.2%.

Compound `Cc1cc(Nc2cc(N3CCN(C)CC3)nc(Sc3ccc(NC(=O)C4CC4)cc3)n2)n[nH]1` [Tozasertib] + CC(C)(C)c1cnc(CSc2cnc(NC(=O)C3CCNCC3)s2)o1 [SNS-032] (first compound 0.03 µM, partner dose 0.05 µM) gave a cell count of 92%.

`CC[C@]1(O)C[C@H]2CN(CCc3c([nH]c4ccccc34)[C@@](C(=O)OC)(c3cc4c(cc3OC)N(C=O)[C@H]3[C@@](O)(C(=O)OC)[C@H](OC(C)=O)[C@]5(CC)C=CCN6CC[C@]43[C@@H]65)C2)C1` [vincristine] + C=CCn1c(=O)c2cnc(Nc3ccc(N4CCN(C)CC4)cc3)nc2n1-c1cccc(C(C)(C)O)n1 [MK1775] (first compound 0.0005 µM, partner dose 0.1 µM): the cell count was 76.8%.

With `CC[C@]1(O)C[C@H]2CN(CCc3c([nH]c4ccccc34)[C@@](C(=O)OC)(c3cc4c(cc3OC)N(C=O)[C@H]3[C@@](O)(C(=O)OC)[C@H](OC(C)=O)[C@]5(CC)C=CCN6CC[C@]43[C@@H]65)C2)C1` [vincristine] + Cn1cncc1[C@@](N)(c1ccc(Cl)cc1)c1ccc2c(c1)c(-c1cccc(Cl)c1)cc(=O)n2C [tipifarnib] (first compound 0.0005 µM, partner dose 0.05 µM), the cell count amounted to 63.3%.

Turning to `N#CC[C@H](C1CCCC1)n1cc(-c2ncnc3[nH]ccc23)cn1` [ruxolitinib] + NCC(=O)Nc1ccc(-n2nc(C(F)(F)F)cc2-c2ccc3c(ccc4ccccc43)c2)cc1 [OSU03012] (first compound 5 µM, partner dose 5 µM), the cell count turned out to be 59.8%.

For the compound `N#CC[C@H](C1CCCC1)n1cc(-c2ncnc3[nH]ccc23)cn1` [ruxolitinib] + CC(C)(C)c1cnc(CSc2cnc(NC(=O)C3CCNCC3)s2)o1 [SNS-032] (first compound 5 µM, partner dose 0.05 µM), the cell count was found to be 89.4%.

`CC[C@]1(O)C[C@H]2CN(CCc3c([nH]c4ccccc34)[C@@](C(=O)OC)(c3cc4c(cc3OC)N(C=O)[C@H]3[C@@](O)(C(=O)OC)[C@H](OC(C)=O)[C@]5(CC)C=CCN6CC[C@]43[C@@H]65)C2)C1` [vincristine] + Cc1cc(N2CCOCC2)cc2[nH]c(-c3c(NC[C@@H](O)c4cccc(Cl)c4)cc[nH]c3=O)nc12 [BMS536924] (first compound 0.0005 µM, partner dose 1 µM) came in with a cell count of 64.1%.

As to `CC[C@]1(O)C[C@H]2CN(CCc3c([nH]c4ccccc34)[C@@](C(=O)OC)(c3cc4c(cc3OC)N(C=O)[C@H]3[C@@](O)(C(=O)OC)[C@H](OC(C)=O)[C@]5(CC)C=CCN6CC[C@]43[C@@H]65)C2)C1` [vincristine] + CC(C)(C)c1cnc(CSc2cnc(NC(=O)C3CCNCC3)s2)o1 [SNS-032] (first compound 0.0005 µM, partner dose 0.05 µM), the cell count was determined as 72.2%.

The record behind these values is the supplement of paper PMC4604168 (melanoma cell lines).
